No constants are given. Whether binding was seen depends on the method and setting. For part of these data: Binding seen in cells or lysates may run through a third protein. Some binding calls cover weakened binding; strength is not graded here. For part of these data: Where a sequence is shown, tags or fusion partners need not be part of it. Values belong to the molecule of their own block, whether it stands above or below them.
Key:
GFP-tagged CAF1 = GFP-tagged CAF1 (UniProt Q9UIV1); experiment: co-IP; GFP-CAF1 or GFP-CAF1* expressed in HEK293T cells, immunoprecipitated with anti-GFP antibody; precipitates incubated on ice with 12 μM purified MBP or MBP-tagged CIR for 10 min, washed, western blot of endogenous CCR4–NOT subunits
[1] = molecular target: T1, GFP-PatL1 (full length) (human) (UniProt Q86TB9); experiment: co-IP; GFP-tagged bait expressed in HEK293T cells, immunoprecipitated with anti-GFP antibodies; endogenous partners detected by western blot; NET buffer (50 mM Tris/HCl pH 7.5, 150 mM NaCl, 1 mM EDTA, 0.1% Triton-X-100, 10% glycerol); RNase A added
T1 sequence: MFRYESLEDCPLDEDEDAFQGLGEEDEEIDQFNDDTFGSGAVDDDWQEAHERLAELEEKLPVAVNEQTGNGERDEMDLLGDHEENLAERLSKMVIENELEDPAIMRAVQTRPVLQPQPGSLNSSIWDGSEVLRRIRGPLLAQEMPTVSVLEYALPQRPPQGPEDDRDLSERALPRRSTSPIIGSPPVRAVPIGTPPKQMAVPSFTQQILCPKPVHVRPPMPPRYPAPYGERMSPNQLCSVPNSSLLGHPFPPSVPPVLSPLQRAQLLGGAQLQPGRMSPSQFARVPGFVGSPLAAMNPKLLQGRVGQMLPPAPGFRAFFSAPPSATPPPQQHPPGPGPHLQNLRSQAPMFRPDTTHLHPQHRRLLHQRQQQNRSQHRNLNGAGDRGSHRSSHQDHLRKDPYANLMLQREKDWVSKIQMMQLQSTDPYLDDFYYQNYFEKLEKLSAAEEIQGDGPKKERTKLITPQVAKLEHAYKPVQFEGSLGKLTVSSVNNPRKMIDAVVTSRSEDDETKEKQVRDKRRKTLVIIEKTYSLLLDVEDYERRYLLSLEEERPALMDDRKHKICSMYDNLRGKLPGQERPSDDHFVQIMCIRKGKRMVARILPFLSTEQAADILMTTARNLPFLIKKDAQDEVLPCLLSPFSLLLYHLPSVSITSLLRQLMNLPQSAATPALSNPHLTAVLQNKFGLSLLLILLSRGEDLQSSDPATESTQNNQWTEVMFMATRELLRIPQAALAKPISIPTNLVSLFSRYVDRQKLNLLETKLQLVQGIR

[2] = molecular target: T2, GFP-PatL1 ΔC (lacks residues 517-770) (human) (UniProt Q86TB9); experiment: as above
T2 sequence: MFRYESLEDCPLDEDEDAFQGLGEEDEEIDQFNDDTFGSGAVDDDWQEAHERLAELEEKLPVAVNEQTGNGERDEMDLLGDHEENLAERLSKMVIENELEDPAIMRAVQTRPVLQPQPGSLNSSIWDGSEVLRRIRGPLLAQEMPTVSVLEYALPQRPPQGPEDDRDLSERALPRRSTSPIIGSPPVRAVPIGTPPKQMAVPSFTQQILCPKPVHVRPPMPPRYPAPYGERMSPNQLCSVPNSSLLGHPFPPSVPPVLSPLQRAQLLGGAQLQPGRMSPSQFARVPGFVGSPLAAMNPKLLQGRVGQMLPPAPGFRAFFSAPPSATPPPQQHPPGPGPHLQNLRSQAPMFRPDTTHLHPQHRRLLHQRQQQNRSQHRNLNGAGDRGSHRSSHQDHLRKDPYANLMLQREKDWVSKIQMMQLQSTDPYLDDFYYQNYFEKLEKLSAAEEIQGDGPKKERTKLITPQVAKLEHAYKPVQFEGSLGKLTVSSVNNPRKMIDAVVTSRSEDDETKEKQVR

[3] = molecular target: T3, MBP- and Strep-tagged recombinant human XRN1 CIR (human) (UniProt Q8IZH2); experiment: pull-down; MBP/Strep-tagged bait (from cleared E. coli lysate, or 30 μg purified PNRC2) held on Strep-Tactin sepharose and washed; purified proteins added for 1 h at 4°C in 50 mM Tris/HCl pH 7.5, 150 mM NaCl; eluted with 2.5 mM biotin; SDS-PAGE, Coomassie; both purified
T3 sequence: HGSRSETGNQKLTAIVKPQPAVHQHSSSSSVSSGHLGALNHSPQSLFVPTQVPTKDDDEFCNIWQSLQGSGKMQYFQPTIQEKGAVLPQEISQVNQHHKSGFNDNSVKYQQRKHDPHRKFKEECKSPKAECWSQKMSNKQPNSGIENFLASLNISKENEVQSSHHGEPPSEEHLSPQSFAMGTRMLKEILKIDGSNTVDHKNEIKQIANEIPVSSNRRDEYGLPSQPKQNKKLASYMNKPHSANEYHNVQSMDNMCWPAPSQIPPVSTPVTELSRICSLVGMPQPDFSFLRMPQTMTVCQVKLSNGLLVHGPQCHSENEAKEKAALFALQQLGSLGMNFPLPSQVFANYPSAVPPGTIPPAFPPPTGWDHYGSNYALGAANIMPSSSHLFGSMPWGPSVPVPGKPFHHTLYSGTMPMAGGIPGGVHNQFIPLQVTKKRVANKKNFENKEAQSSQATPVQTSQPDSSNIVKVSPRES

[4] = molecular target: GFP-tagged XRN1 (full length) (human) (UniProt Q8IZH2); experiment: co-IP; GFP-tagged bait expressed in HEK293T cells, immunoprecipitated with anti-GFP antibodies; endogenous partners detected by western blot; NET buffer (50 mM Tris/HCl pH 7.5, 150 mM NaCl, 1 mM EDTA, 0.1% Triton-X-100, 10% glycerol); RNase A added
[5] = molecular target: GFP-tagged XRN1 (full length) (human) (UniProt Q8IZH2); experiment: co-IP; GFP-tagged and HA-tagged proteins co-expressed in HEK293T cells, immunoprecipitated with anti-GFP antibodies, western blot; NET buffer; RNase A added
[6] = molecular target: T4, GFP-tagged XRN1 C-terminal interacting region (residues 1174-1649) (human) (UniProt Q8IZH2); experiment: as above
T4 sequence: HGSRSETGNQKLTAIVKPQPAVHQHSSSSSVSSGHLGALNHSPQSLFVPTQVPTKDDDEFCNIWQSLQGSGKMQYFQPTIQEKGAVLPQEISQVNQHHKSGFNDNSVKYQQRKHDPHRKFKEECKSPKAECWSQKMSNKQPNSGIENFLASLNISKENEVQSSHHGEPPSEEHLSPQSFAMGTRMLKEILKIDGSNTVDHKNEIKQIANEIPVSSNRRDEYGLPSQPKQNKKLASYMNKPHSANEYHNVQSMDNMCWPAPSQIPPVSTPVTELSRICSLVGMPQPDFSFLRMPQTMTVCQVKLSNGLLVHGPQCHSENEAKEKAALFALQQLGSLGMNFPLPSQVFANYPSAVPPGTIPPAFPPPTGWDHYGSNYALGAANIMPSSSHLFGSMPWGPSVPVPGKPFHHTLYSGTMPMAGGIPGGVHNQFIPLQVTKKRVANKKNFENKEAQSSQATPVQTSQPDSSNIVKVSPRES

- binding (GFP-tagged CAF1): binds
Molecule: endogenous NOT2 (from UniProt Q9NZN8 1-540)

- binding (GFP-tagged CAF1): binds
Molecule: endogenous CCR4a (from UniProt Q9ULM6 1-557) (enzyme)

- binding [1]: binds
- binding [2]: binds
Molecule: endogenous NOT1 (from UniProt A5YKK6 1-2376)

- binding (GFP-tagged CAF1): binds
Molecule: endogenous NOT3 (from UniProt O75175 1-753)

- binding [3]: binds
B1: recombinant PatL1 C-terminal region (PatL1-C) (domain or fragment, UniProt Q86TB9 517-770)
chain: DKRRKTLVIIEKTYSLLLDVEDYERRYLLSLEEERPALMDDRKHKICSMYDNLRGKLPGQERPSDDHFVQIMCIRKGKRMVARILPFLSTEQAADILMTTARNLPFLIKKDAQDEVLPCLLSPFSLLLYHLPSVSITSLLRQLMNLPQSAATPALSNPHLTAVLQNKFGLSLLLILLSRGEDLQSSDPATESTQNNQWTEVMFMATRELLRIPQAALAKPISIPTNLVSLFSRYVDRQKLNLLETKLQLVQGIR

- binding [4]: no binding
B2: endogenous PAN2 (enzyme, UniProt Q504Q3 1-1202)
chain: MNFEGLDPGLAEYAPAMHSALDPVLDAHLNPSLLQNVELDPEGVALEALPVQESVHIMEGVYSELHSVVAEVGVPVSVSHFDLHEEMLWVGSHGGHATSFFGPALERYSSFQVNGSDDIRQIQSLENGILFLTKNNLKYMARGGLIIFDYLLDENEDMHSLLLTDSSTLLVGGLQNHIIEIDLNTVQETQKYAVETPGVTIMRQTNRFFFCGHTSGKVSLRDLRTFKVEHEFDAFSGSLSDFDVHGNLLAACGFSSRLTGLACDRFLKVYDLRMMRAITPLQVHVDPAFLRFIPTYTSRLAIISQSGQCQFCEPTGLANPADIFHVNPVGPLLMTFDVSASKQALAFGDSEGCVHLWTDSPEPSFNPYSRETEFALPCLVDSLPPLDWSQDLLPLSLIPVPLTTDTLLSDWPAANSAPAPRRAPPVDAEILRTMKKVGFIGYAPNPRTRLRNQIPYRLKESDSEFDSFSQVTESPVGREEEPHLHMVSKKYRKVTIKYSKLGLEDFDFKHYNKTLFAGLEPHIPNAYCNCMIQVLYFLEPVRCLIQNHLCQKEFCLACELGFLFHMLDLSRGDPCQGNNFLRAFRTIPEASALGLILADSDEASGKGNLARLIQRWNRFILTQLHQDMQELEIPQAYRGAGGSSFCSSGDSVIGQLFSCEMENCSLCRCGSETVRASSTLLFTLSYPDGSKSDKTGKNYDFAQVLKRSICLDQNTQAWCDTCEKYQPTIQTRNIRHLPDILVINCEVNSSKEADFWRMQAEVAFKMAVKKHGGEISKNKEFALADWKELGSPEGVLVCPSIEELKNVWLPFSIRMKMTKNKGLDVCNWTDGDEMQWGPARAEEEHGVYVYDLMATVVHILDSRTGGSLVAHIKVGETYHQRKEGVTHQQWYLFNDFLIEPIDKHEAVQFDMNWKVPAILYYVKRNLNSRYNLNIKNPIEASVLLAEASLARKQRKTHTTFIPLMLNEMPQIGDLVGLDAEFVTLNEEEAELRSDGTKSTIKPSQMSVARITCVRGQGPNEGIPFIDDYISTQEQVVDYLTQYSGIKPGDLDAKISSKHLTTLKSTYLKLRFLIDIGVKFVGHGLQKDFRVINLMVPKDQVLDTVYLFHMPRKRMISLRFLAWYFLDLKIQGETHDSIEDARTALQLYRKYLELSKNGTEPESFHKVLKGLYEKGRKMDWKVPEPEGQTSPKNAAVFSSVLAL

- binding [5]: binds
- binding [6]: binds
B3: HA-tagged PatL1 (protein, UniProt Q86TB9 1-770)
chain: MFRYESLEDCPLDEDEDAFQGLGEEDEEIDQFNDDTFGSGAVDDDWQEAHERLAELEEKLPVAVNEQTGNGERDEMDLLGDHEENLAERLSKMVIENELEDPAIMRAVQTRPVLQPQPGSLNSSIWDGSEVLRRIRGPLLAQEMPTVSVLEYALPQRPPQGPEDDRDLSERALPRRSTSPIIGSPPVRAVPIGTPPKQMAVPSFTQQILCPKPVHVRPPMPPRYPAPYGERMSPNQLCSVPNSSLLGHPFPPSVPPVLSPLQRAQLLGGAQLQPGRMSPSQFARVPGFVGSPLAAMNPKLLQGRVGQMLPPAPGFRAFFSAPPSATPPPQQHPPGPGPHLQNLRSQAPMFRPDTTHLHPQHRRLLHQRQQQNRSQHRNLNGAGDRGSHRSSHQDHLRKDPYANLMLQREKDWVSKIQMMQLQSTDPYLDDFYYQNYFEKLEKLSAAEEIQGDGPKKERTKLITPQVAKLEHAYKPVQFEGSLGKLTVSSVNNPRKMIDAVVTSRSEDDETKEKQVRDKRRKTLVIIEKTYSLLLDVEDYERRYLLSLEEERPALMDDRKHKICSMYDNLRGKLPGQERPSDDHFVQIMCIRKGKRMVARILPFLSTEQAADILMTTARNLPFLIKKDAQDEVLPCLLSPFSLLLYHLPSVSITSLLRQLMNLPQSAATPALSNPHLTAVLQNKFGLSLLLILLSRGEDLQSSDPATESTQNNQWTEVMFMATRELLRIPQAALAKPISIPTNLVSLFSRYVDRQKLNLLETKLQLVQGIR
